Some of the results follow.
Assays:
Assay in all cases: glycan array binding signal (z-score within array); higher = stronger binding
Details in all cases: glycan notation: IUPAC condensed, linker removed
[1] = target: Gal(b1-3)GalNAc(b1-4)[Neu5Gc(a2-3)]Gal(b1-4)Glc
Summary of the method: (§1)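 Glycan array data were curated from 3228 arrays in the Consortium for Functional Glycomics database and kept only where the protein sequence was available. Glycan names were converted to IUPAC-condensed notation, and columns mapping to the same glycan were averaged. The binding signal is a within-array Z-score, averaged across arrays of the same protein sequence at different concentrations or buffers and across linkers. Negative Z-scores can be read as non-binding.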

Gal(b1-3)GlcNAc = target: Gal(b1-3)GlcNAc
Summary of the method: as §1

[2] = target: Gal(b1-3)GlcNAc(b1-3)Gal(b1-4)Glc
Summary of the method: as §1

[3] = target: Gal(b1-3)GlcNAc(b1-3)Gal(b1-4)GlcNAc(b1-3)Gal(b1-4)Glc
Summary of the method: as §1

[4] = target: Gal(b1-3)GlcNAc(b1-3)Gal(b1-4)GlcNAc(b1-6)[Gal(b1-3)GlcNAc(b1-3)]Gal(b1-4)Glc
Summary of the method: as §1

[5] = target: Gal(b1-3)GlcNAc(b1-3)Gal(b1-4)[Fuc(a1-3)]GlcNAc(b1-3)Gal(b1-4)Glc
Summary of the method: as §1

[6] = target: Gal(b1-3)GlcNAc(b1-3)Gal(b1-4)[Fuc(a1-3)]GlcNAc(b1-6)[Gal(b1-3)GlcNAc(b1-3)]Gal(b1-4)Glc
Summary of the method: as §1

[7] = target: Gal(b1-3)GlcNAc(b1-3)[Fuc(a1-3)[Gal(b1-4)]GlcNAc(b1-6)]Gal(b1-4)Glc
Summary of the method: as §1

[8] = target: Gal(b1-3)GlcNAc(b1-3)[Fuc(a1-3)[Gal(b1-4)]GlcNAc(b1-6)]Gal(b1-4)]GlcNAc(b1-6)[Gal(b1-4)]GlcNAc(b1-3)]Gal(b1-4)Glc
Summary of the method: as §1

[9] = target: Gal(b1-3)GlcNAc(b1-3)[Gal(b1-4)GlcNAc(b1-6)]Gal(b1-4)Glc
Summary of the method: as §1

[10] = target: Gal(b1-3)GlcNAc(b1-3)[Gal(b1-4)GlcNAc(b1-6)]Gal(b1-4)GlcNAc(b1-6)[Gal(b1-3)GlcNAc(b1-3)]Gal(b1-4)Glc
Summary of the method: as §1

[11] = target: Gal(b1-3)[Fuc(a1-4)]GlcNAc
Summary of the method: as §1

[12] = target: Gal(b1-3)[Fuc(a1-4)]GlcNAc(b1-3)Gal(b1-4)Glc
Summary of the method: as §1

[13] = target: Gal(b1-3)[Fuc(a1-4)]GlcNAc(b1-3)Gal(b1-4)[Fuc(a1-3)]Glc
Summary of the method: as §1

[14] = target: Gal(b1-3)[Fuc(a1-4)]GlcNAc(b1-3)Gal(b1-4)[Fuc(a1-3)]GlcNAc(b1-3)Gal(b1-4)Glc
Summary of the method: as §1

[15] = target: Gal(b1-3)[Fuc(a1-4)]GlcNAc(b1-3)Gal(b1-4)[Fuc(a1-3)]GlcNAc(b1-6)[Gal(b1-3)[Fuc(a1-4)]GlcNAc(b1-3)]Gal(b1-4)Glc
Summary of the method: as §1

[16] = target: Gal(b1-3)[Fuc(a1-4)]GlcNAc(b1-3)[Fuc(a1-3)[Gal(b1-4)]GlcNAc(b1-6)]Gal(b1-4)Glc
Summary of the method: as §1

[17] = target: Gal(b1-3)[Neu5Ac(a2-6)]GlcNAc(b1-3)Gal(b1-4)Glc
Summary of the method: as §1

Gal(b1-4)Glc = target: Gal(b1-4)Glc
Summary of the method: as §1

Gal(b1-4)GlcNAc = target: Gal(b1-4)GlcNAc
Summary of the method: as §1

[18] = target: Gal(b1-4)GlcNAc(b1-2)Man(a1-3)[Gal(b1-4)GlcNAc(b1-2)Man(a1-6)]Man(b1-4)GlcNAc(b1-4)GlcNAc
Summary of the method: as §1

[19] = target: Gal(b1-4)GlcNAc(b1-2)Man(a1-3)[Gal(b1-4)GlcNAc(b1-2)Man(a1-6)]Man(b1-4)GlcNAc(b1-4)[Fuc(a1-6)]GlcNAc
Summary of the method: as §1

[20] = target: Gal(b1-4)GlcNAc(b1-2)Man(a1-3)[Gal(b1-4)GlcNAc(b1-2)Man(a1-6)][GlcNAc(b1-4)]Man(b1-4)GlcNAc(b1-4)[Fuc(a1-6)]GlcNAc
Summary of the method: as §1

[21] = target: Gal(b1-4)GlcNAc(b1-2)Man(a1-3)[Man(a1-6)]Man(b1-4)GlcNAc(b1-4)GlcNAc
Summary of the method: as §1

[22] = target: Gal(b1-4)GlcNAc(b1-2)Man(a1-6)[GlcNAc(b1-2)Man(a1-3)]Man(b1-4)GlcNAc(b1-4)[Fuc(a1-6)]GlcNAc
Summary of the method: as §1

[23] = target: Gal(b1-4)GlcNAc(b1-2)Man(a1-6)[Man(a1-3)]Man(b1-4)GlcNAc(b1-4)GlcNAc
Summary of the method: as §1

[24] = target: Gal(b1-4)GlcNAc(b1-2)Man(a1-6)[Man(a1-3)]Man(b1-4)GlcNAc(b1-4)[Fuc(a1-6)]GlcNAc
Summary of the method: as §1

[25] = target: Gal(b1-4)GlcNAc(b1-2)[Gal(b1-4)GlcNAc(b1-4)]Man(a1-3)[Fuc(a1-3)[Gal(b1-4)]GlcNAc(b1-2)Man(a1-6)]Man(b1-4)GlcNAc(b1-4)GlcNAc
Summary of the method: as §1

[26] = target: Gal(b1-4)GlcNAc(b1-2)[Gal(b1-4)GlcNAc(b1-4)]Man(a1-3)[Gal(b1-4)GlcNAc(b1-2)Man(a1-6)]Man(b1-4)GlcNAc(b1-4)GlcNAc
Summary of the method: as §1

[27] = target: Gal(b1-4)GlcNAc(b1-2)[Gal(b1-4)GlcNAc(b1-4)]Man(a1-3)[Gal(b1-4)GlcNAc(b1-2)[Gal(b1-4)GlcNAc(b1-6)]Man(a1-6)]Man(b1-4)GlcNAc(b1-4)GlcNAc
Summary of the method: as §1

Gal(b1-4)GlcNAc(b1-3)Fuc = target: Gal(b1-4)GlcNAc(b1-3)Fuc
Summary of the method: as §1

[28] = target: Gal(b1-4)GlcNAc(b1-3)Gal(b1-4)Glc
Summary of the method: as §1

[29] = target: Gal(b1-4)GlcNAc(b1-3)Gal(b1-4)GlcNAc(b1-3)Gal(b1-4)Glc
Summary of the method: as §1

[30] = target: Gal(b1-4)GlcNAc(b1-3)[Fuc(a1-3)[Gal(b1-4)]GlcNAc(b1-6)]Gal(b1-4)Glc
Summary of the method: as §1

[31] = target: Gal(b1-4)GlcNAc(b1-3)[Gal(b1-4)GlcNAc(b1-6)]Gal(b1-4)Glc
Summary of the method: as §1

[32] = target: Gal(b1-4)GlcNAc(b1-3)[Gal(b1-4)GlcNAc(b1-6)]Gal(b1-4)GlcNAc(b1-3)Gal(b1-4)Glc
Summary of the method: as §1

[33] = target: Gal(b1-4)GlcNAc(b1-3)[Gal(b1-4)GlcNAc(b1-6)]Gal(b1-4)GlcNAc(b1-3)[Gal(b1-4)GlcNAc(b1-6)]Gal(b1-4)GlcNAc(b1-3)Gal(b1-4)Glc
Summary of the method: as §1

[34] = target: Gal(b1-4)GlcNAc(b1-3)[Gal(b1-4)GlcNAc(b1-6)]Gal(b1-4)GlcNAc(b1-3)[Gal(b1-4)GlcNAc(b1-6)]Gal(b1-4)GlcNAc(b1-3)[Gal(b1-4)GlcNAc(b1-6)]Gal(b1-4)GlcNAc(b1-3)Gal(b1-4)Glc
Summary of the method: as §1

[35] = target: Gal(b1-4)GlcNAc(b1-3)[Gal(b1-4)GlcNAc(b1-6)]Gal(b1-4)GlcNAc(b1-3)[Gal(b1-4)GlcNAc(b1-6)]Gal(b1-4)GlcNAc(b1-3)[Gal(b1-4)GlcNAc(b1-6)]Gal(b1-4)GlcNAc(b1-3)[Gal(b1-4)GlcNAc(b1-6)]Gal(b1-4)GlcNAc(b1-3)Gal(b1-4)Glc
Summary of the method: as §1

Gal(b1-6)GalNAc = target: Gal(b1-6)GalNAc
Summary of the method: as §1

[36] = target: Gal3S(b1-3)GalNAc(b1-4)Gal3S(b1-4)Glc
Summary of the method: as §1

[37] = target: Gal3S(b1-3)[Fuc(a1-4)]GlcNAc
Summary of the method: as §1

[38] = target: Gal3S(b1-3)[Fuc(a1-4)]GlcNAc(b1-3)Gal(b1-4)Glc
Summary of the method: as §1

Gal3S(b1-4)Glc = target: Gal3S(b1-4)Glc
Summary of the method: as §1

Gal3S(b1-4)GlcNAc = target: Gal3S(b1-4)GlcNAc
Summary of the method: as §1

Measured: glycan array binding signal (z-score)

B1: Malectin (Xenopus laevis), Q6INX3 (protein)
chain: SGLADKVIWAVNAGGESHVDVHGIHYRKDPLEGRVGRASDYGMKLPILRSNPEDQVLYQTERYNEDSFGYDIPIKEEGEYVLVLKFAEVYFAQSQQKVFDVRVNGHTVVKDLDIFDRVGHSTAHDEIIPISIKKGKLSVQGEVSTFTGKLSVEFVKGYYDNPKVCALFIMKGTADDVPMLQPHPGLE
-0.072: [2] | [16] | Gal(b1-4)GlcNAc | [27] | Gal(b1-4)GlcNAc(b1-3)Fuc | Gal(b1-6)GalNAc
-0.068: [6] | [12]
-0.122: Gal(b1-4)Glc
-0.073: [8] | [14] | [28] | [30] | [37]
-0.066: [35]
-0.057: [34]
-0.074: [15] | [24] | Gal3S(b1-4)GlcNAc
-0.067: [33]
-0.075: [3] | [9] | [22] | [23] | [31] | Gal3S(b1-4)Glc
-0.076: all other assays above
